According to PMC4336329 (PLoS ONE, 2015):
About 2,200 (0.71%) of roughly 310,000 compounds showed an effect of 50% or more. The effect is printed as a negative number. The list shows a part of the results.

target: human ether-à-go-go-related gene (hERG) potassium channel (human, UniProt Q12809); test: primary screen, population patch clamp on CHO cells stably expressing hERG
Sequence (Q12809 whole entry, looked up): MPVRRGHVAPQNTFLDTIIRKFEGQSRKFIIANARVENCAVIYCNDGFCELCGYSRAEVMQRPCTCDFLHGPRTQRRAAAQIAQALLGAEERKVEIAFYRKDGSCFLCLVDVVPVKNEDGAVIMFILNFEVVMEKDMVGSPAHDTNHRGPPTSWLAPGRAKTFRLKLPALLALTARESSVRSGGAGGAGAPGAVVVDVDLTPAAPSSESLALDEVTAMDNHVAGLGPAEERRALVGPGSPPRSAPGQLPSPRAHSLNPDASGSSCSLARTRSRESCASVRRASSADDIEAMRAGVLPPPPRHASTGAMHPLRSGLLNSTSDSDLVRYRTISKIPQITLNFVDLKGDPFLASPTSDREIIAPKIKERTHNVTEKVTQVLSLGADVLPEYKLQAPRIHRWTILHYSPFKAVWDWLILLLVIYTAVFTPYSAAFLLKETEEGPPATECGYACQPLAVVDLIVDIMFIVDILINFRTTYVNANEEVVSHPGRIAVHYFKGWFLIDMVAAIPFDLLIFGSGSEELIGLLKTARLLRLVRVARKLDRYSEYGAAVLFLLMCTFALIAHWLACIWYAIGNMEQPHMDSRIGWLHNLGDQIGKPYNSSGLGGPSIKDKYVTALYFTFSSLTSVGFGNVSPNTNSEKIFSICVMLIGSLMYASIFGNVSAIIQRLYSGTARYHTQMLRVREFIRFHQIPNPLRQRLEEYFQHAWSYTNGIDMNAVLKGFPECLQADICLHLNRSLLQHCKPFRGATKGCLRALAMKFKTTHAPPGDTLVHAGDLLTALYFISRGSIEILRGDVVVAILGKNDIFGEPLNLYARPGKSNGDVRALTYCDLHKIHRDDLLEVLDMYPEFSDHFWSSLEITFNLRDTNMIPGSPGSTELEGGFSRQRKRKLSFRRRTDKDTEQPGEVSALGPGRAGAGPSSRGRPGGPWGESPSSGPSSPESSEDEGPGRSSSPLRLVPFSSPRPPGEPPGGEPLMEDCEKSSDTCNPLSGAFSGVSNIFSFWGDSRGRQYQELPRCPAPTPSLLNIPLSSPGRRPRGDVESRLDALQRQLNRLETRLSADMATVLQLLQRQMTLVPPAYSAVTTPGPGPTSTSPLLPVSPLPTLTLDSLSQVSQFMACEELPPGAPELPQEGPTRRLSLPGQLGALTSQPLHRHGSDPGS

Going from Cc1ccc(Oc2ncccc2/C=N/OCc2ccc(Cl)cc2Cl)cc1 to FCCCOc1ccc(/C=N/OCc2ccc(Cl)cc2Cl)cc1, the “hERG current change (%, negative = inhibition) at 1uM” value rises from 7.61% to 9.53%.

Compared with CCCCn1c(N)c(N(CCOC)C(=O)COC(=O)c2cc(CCC)c(C)s2)c(=O)[nH]c1=O, COCCCNC(=O)Cc1c(C)c2c(cc(C)c3c(C(C)(C)C)coc32)oc1=O is lower in “hERG current change (%, negative = inhibition) at 1uM” value: 6.81% for the first, 0.222% for the second.

First: COc1ccc(C2(C)CC(=O)NC2=O)cc1 (stereo not shown)
Second: COc1ccc(N(CC(=O)N2CCOCC2)S(C)(=O)=O)cc1
The “hERG current change (%, negative = inhibition) at 1uM” value of the first is lower: 9.68% for the first, 16.4% for the second.

First: CC(=O)c1ccc(NC(=O)Nc2ccc([N+](=O)[O-])cc2)cc1
Second: CC(=O)Nc1ccc(N2C(=O)c3cccc4c(O)ccc(c34)C2=O)cc1
The “hERG current change (%, negative = inhibition) at 1uM” value of the first is higher: 14.7% for the first, 13.3% for the second.

First: Cc1ccc(-n2c(SCC(=O)Nc3ccc4c5c(cccc35)CC4)nc(O)c(C)c2=O)cc1
Second: CCOc1ccc(CNC(=O)Cn2nc(C)c3c(C)n(-c4ccc(C)cc4)nc3c2=O)cc1
The “hERG current change (%, negative = inhibition) at 1uM” value of the first is higher: 20.3% for the first, 6.12% for the second.

First: COc1cccc(/C=C/C(=O)OCC(=O)Nc2nnc(-c3ccccc3)o2)c1
Second: Nc1nnc(SCC(=O)Nc2nnc(-c3ccccc3)o2)s1
The “hERG current change (%, negative = inhibition) at 1uM” value of the first is lower: 7.81% for the first, 15.7% for the second.

Going from COc1cc(NC(=O)C/C(C)=N/NC(=O)Cc2ccc(Cl)cc2)c(OC)cc1Cl to COc1ccc(C)cc1N(C)C(=O)Cc1c(C(=O)O)n(C)c2ccccc12, the “hERG current change (%, negative = inhibition) at 1uM” value rises from 1.81% to 10.8%.

First: NC(=O)[C@@H]1CCCNc2c(F)cc([N+](=O)[O-])cc2C(=O)N[C@@H](CO)C(=O)NCC(=O)N1
Second: Cc1cc(OC(=O)c2ccccc2F)c([N+](=O)[O-])c(=O)[nH]1
The “hERG current change (%, negative = inhibition) at 1uM” value of the first is lower: 9.46% for the first, 13% for the second.

Compared with Cc1ccsc1C(C(=O)NC(C)(C)C)N(Cc1ccco1)C(=O)c1csnn1 (stereo not shown), O=C(OCc1ccco1)c1cccnc1 is lower in “hERG current change (%, negative = inhibition) at 1uM” value: 10.4% for the first, 5.87% for the second.

First: O=C(NNC(=O)c1c(F)cccc1F)c1ccccc1OC(F)(F)F
Second: CNS(=O)(=O)c1cccc(C(=O)OCC(=O)Nc2ccccc2OC(F)F)c1
The “hERG current change (%, negative = inhibition) at 1uM” value of the first is higher: 12.9% for the first, 6.97% for the second.

Compared with O=C(CSCc1cccc(Cl)c1)OCc1nc2ccsc2c(=O)[nH]1, Nc1nonc1-n1nnc(C(=O)N/N=C/c2cccc(Cl)c2)c1CSc1ccccc1 is higher in “hERG current change (%, negative = inhibition) at 1uM” value: -1.9% for the first, 13.6% for the second.

Going from O=C(CSc1nc2[nH]ncc2c(=O)n1-c1ccccc1)N1CCCCCC1 to COc1ccc(N2CCN(C(=O)Cn3cnc4c(cnn4-c4ccccc4)c3=O)CC2)cc1, the “hERG current change (%, negative = inhibition) at 1uM” value falls from 10.3% to 5.22%.

First: CCc1cccc2c1NC(=O)C2(O)CC(=O)c1cccs1 (stereo not shown)
Second: Cc1ccc(NC(=O)CCNS(=O)(=O)c2cccs2)cc1F
The “hERG current change (%, negative = inhibition) at 1uM” value of the first is higher: 21.1% for the first, 13.4% for the second.

Going from COc1ccc(Cl)cc1NS(=O)(=O)c1ccc2c(c1)NC(=O)CCS2 to Cc1ccc2oc(C(=O)NCc3ccc(S(N)(=O)=O)cc3)cc(=O)c2c1, the “hERG current change (%, negative = inhibition) at 1uM” value rises from 7.88% to 14.2%.

Compared with N#CNC(=Nc1cccc(Cl)c1)Oc1ccccc1, O=C1c2cccc3cc(Br)cc(c23)C(=O)N1Nc1ccccc1 is higher in “hERG current change (%, negative = inhibition) at 1uM” value: 8.69% for the first, 14.6% for the second.

Compared with CC1(C)CC(=O)c2sc(NC(=O)CN3CCCCC3)nc2C1, Cc1ccccc1NC(=O)CN1C(=O)NC2(CCCCC2)C1=O is lower in “hERG current change (%, negative = inhibition) at 1uM” value: 6.72% for the first, 2.22% for the second.

Compared with Cc1cc2c(ncn2C(C)C)c(N)c1C, CCc1nnc(NC(=O)c2oc3cc(C)c(C)cc3c2C)s1 is higher in “hERG current change (%, negative = inhibition) at 1uM” value: -7.87% for the first, 6.68% for the second.

Going from O=C(NCC(=O)N(c1ccc2c(c1)OCO2)C(C(=O)NC1CCCC1)c1ccncc1)c1ccco1 (stereo not shown) to Cc1ccc(N(C(=O)c2nsc(Cl)c2Cl)C(C(=O)NC2CCCC2)c2ccc(O)cc2)cc1C (stereo not shown), the “hERG current change (%, negative = inhibition) at 1uM” value rises from 1.4% to 9.87%.

First: O=C(CCC1(C(=O)O)CCC(=O)NC1)NCc1ccccc1 (stereo not shown)
Second: COc1ccc(NC(=O)C(CC(=O)O)Cc2ccccc2)cc1 (stereo not shown)
The “hERG current change (%, negative = inhibition) at 1uM” value of the first is lower: 8.82% for the first, 8.96% for the second.

Going from N#C/C(=C\c1ccc(OCc2ccccc2)cc1)C(=O)Nc1nc2c(s1)CCN(Cc1ccccc1)C2 to [Cl-].c1ccc(COc2ccc(-c3sc(Nc4ccccc4)n[n+]3-c3ccccc3)cc2)cc1, the “hERG current change (%, negative = inhibition) at 1uM” value falls from 14.8% to 10.6%.

Compared with O=C1NC(=O)/C(=C\c2cn(CC(=O)N3CCOCC3)c3ccccc23)S1, O=C(c1cccc(Oc2c(Cl)cccc2[N+](=O)[O-])c1)N1CCOCC1 is lower in “hERG current change (%, negative = inhibition) at 1uM” value: 12.3% for the first, 3.79% for the second.

Going from O=C(/C=C/c1ccc(Br)cc1)NC(=S)NNC(=O)c1ccco1 to O=C(NC(=S)Nc1ccccc1N1CCCC1)c1ccco1, the “hERG current change (%, negative = inhibition) at 1uM” value falls from 7% to 0.475%.

First: COc1cccc(-c2nc(CS(=O)(=O)CC(=O)NCCN3CCOCC3)c(C)o2)c1
Second: CCOc1ccc2c(c1)C(NC(C)=O)C(=O)N2CCN1CCOCC1.Cl (stereo not shown)
The “hERG current change (%, negative = inhibition) at 1uM” value of the first is lower: 12% for the first, 12.3% for the second.

Going from CCOC(=O)c1c(NC(=O)C2Cc3ccccc3C(=O)O2)sc2c1CCCC2 (stereo not shown) to COC(=O)c1c(NC(=O)CCS(=O)(=O)c2ccccc2)sc2c1CCN(C)C2.Cl, the “hERG current change (%, negative = inhibition) at 1uM” value falls from 11.1% to -13.3%.

Compared with O=S(=O)(c1c(Cl)sc(Cl)c1Br)N1CCCC1, Cc1ccc(C)c(S(=O)(=O)N2CCN(C(=O)C3CC3C)CC2)c1 (stereo not shown) is lower in “hERG current change (%, negative = inhibition) at 1uM” value: 9.04% for the first, 7.35% for the second.

Compared with CCSc1nc2ccccc2n1CCC(=O)O, CCCn1c(SC(C(=O)Nc2cccc(OC)c2)c2ccccc2)nc2ccccc2c1=O (stereo not shown) is lower in “hERG current change (%, negative = inhibition) at 1uM” value: 6.12% for the first, 4.61% for the second.

First: O=C(N1CCOCC1)C12CC3CC(C1)CC(n1cnc(Cl)n1)(C3)C2
Second: CSc1nc(Cl)cc(N2CCOCC2)n1
The “hERG current change (%, negative = inhibition) at 1uM” value of the first is lower: 2.09% for the first, 12.7% for the second.

First: CCn1cnnc1SCC(=O)c1c(N)n(C2CC2)c(=O)[nH]c1=O
Second: CCC(C)N(C(=O)Cn1c(Cl)nc2c1c(=O)n(C)c(=O)n2C)C1CCS(=O)(=O)C1 (stereo not shown)
The “hERG current change (%, negative = inhibition) at 1uM” value of the first is higher: 9.4% for the first, 1.88% for the second.

Compared with O=C(CCN1C(=O)C2CC=CCC2C1=O)N1CCN(c2ccccn2)CC1 (stereo not shown), O=C(c1ccc2n[nH]nc2c1)N1CCN(c2ccc(C(F)(F)F)cn2)CC1 is lower in “hERG current change (%, negative = inhibition) at 1uM” value: 9.35% for the first, -5.91% for the second.

Going from O=C(Nc1ccc(Oc2ccccc2)nc1)C1CCCCN1Cc1ccc(OCCO)cc1 (stereo not shown) to COc1ccc(NC(=O)C2(c3ccccc3)CCCC2)cc1, the “hERG current change (%, negative = inhibition) at 1uM” value rises from 9.03% to 22.4%.

Compared with O=C(N/N=C/c1ccc2c(c1)OCO2)c1ccc(NS(=O)(=O)c2cccs2)cc1, CCOc1ccc(/C=N/NC(=O)c2ccccc2NC(=O)c2ccc(OC)cc2)cc1 is lower in “hERG current change (%, negative = inhibition) at 1uM” value: 8.33% for the first, 3.71% for the second.

First: COc1ccc(C(=O)O/N=C/c2ccc(S(=O)c3ccc(Cl)cc3)nc2)cc1 (stereo not shown)
Second: Cc1cccc(NC(=O)COc2ccc(-c3nn(C)c(=O)c4ccccc34)cc2)c1
The “hERG current change (%, negative = inhibition) at 1uM” value of the first is higher: 11.6% for the first, -6.58% for the second.

First: CCCNC(=O)N1[C@H]2CC[C@@H]1C(C(=O)OC)=C(c1ccc(C(C)=O)cc1)C2
Second: CC1CCCC(n2cnc3cc(C(=O)O)ccc32)C1C (stereo not shown)
The “hERG current change (%, negative = inhibition) at 1uM” value of the first is higher: 10.1% for the first, 8.94% for the second.

Compared with CCOC(=O)C1CCCCN1Cc1ccc(C(F)(F)F)cc1 (stereo not shown), Cc1noc(C)c1C(=O)N1CCCC(N2CCN(c3cccc(C(F)(F)F)c3)CC2)C1 (stereo not shown) is lower in “hERG current change (%, negative = inhibition) at 1uM” value: 14.2% for the first, -13.4% for the second.

Going from CC1(C)CC(NC(=O)c2ccc(Cl)cc2Cl)CC(C)(C)N1 to Cc1cc(S(=O)(=O)Nc2ccc(N(C)C)cc2)c(C)s1, the “hERG current change (%, negative = inhibition) at 1uM” value falls from 12.3% to 5.54%.

First: N#Cc1ccsc1NC(=O)c1cnccn1
Second: C/C(=N\NC(=O)c1nnn(-c2nonc2N)c1-c1cccs1)c1ccncc1
The “hERG current change (%, negative = inhibition) at 1uM” value of the first is lower: -11% for the first, 2.02% for the second.

First: Cc1ccc(S(=O)(=O)CC(C)(O)CS(=O)(=O)c2ccc(C)cc2)cc1
Second: Cc1ccc(S(=O)(=O)Cc2c(C)noc2C)cc1
The “hERG current change (%, negative = inhibition) at 1uM” value of the first is higher: 10.4% for the first, 7.04% for the second.

Going from N/C(=N\OC(=O)c1cccc(Br)c1)c1ccc(Br)cc1 to O=C(O)COc1ccccc1/C=N/NC(=O)CNC(=O)c1ccc(F)cc1, the “hERG current change (%, negative = inhibition) at 1uM” value rises from 2.01% to 12.9%.

First: O=C(NC(=S)Nn1cnc2c(cnn2-c2ccccc2)c1=O)c1ccccc1
Second: COc1cc(C(=O)NCC(c2cccnc2)N2CCN(c3ccccc3)CC2)cc(OC)c1OC (stereo not shown)
The “hERG current change (%, negative = inhibition) at 1uM” value of the first is higher: 7.47% for the first, 3.11% for the second.

First: COC(=O)NC1(C(=O)O)CCCC1
Second: COc1ccccc1C(CNC(=O)C1COc2ccccc2O1)N1CCCC1 (stereo not shown)
The “hERG current change (%, negative = inhibition) at 1uM” value of the first is lower: -0.0441% for the first, 15.7% for the second.

First: Cc1nc2c(c(C)nn2-c2ccccc2)c(C)c1CCC(=O)Nc1ccc(CN2CCCC2)cc1
Second: CCOC(=O)Cn1nc(-c2ccc(C)cc2)ccc1=O
The “hERG current change (%, negative = inhibition) at 1uM” value of the first is higher: 2.5% for the first, -4.09% for the second.

Going from CC(C)N=C(NC#N)SCC(=O)NC(C)(C)C to Cc1ccc(N=C(N)N=C(N)N)cc1, the “hERG current change (%, negative = inhibition) at 1uM” value rises from 6.29% to 15.6%.

Going from CCN(CC)Cc1c(O)c(Cl)cc2c3c(c(=O)oc12)CCCC3 to CCN(CC)C(=O)C1CCC(CNS(=O)(=O)c2cccc3nsnc23)CC1 (stereo not shown), the “hERG current change (%, negative = inhibition) at 1uM” value falls from 5.31% to 4.25%.

Going from O=S1(=O)C=C(Sc2nnc(-c3ccccc3)o2)c2ccccc21 to Cc1cccc(OCc2nc(C#N)c(N3CC(C)CC(C)C3)o2)c1 (stereo not shown), the “hERG current change (%, negative = inhibition) at 1uM” value rises from -11% to 3.7%.
